Drawing on the supplement of paper PMC9446081, this text covers relative growth for 58 compounds.

Each structure is given as a SMILES string. About 220 (0.56%) of roughly 39,000 compounds showed activity. The list shows a part of the results.
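Also: static incubation at 37 °C against the wild-type strain, values averaged over two biological replicates.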

The experiment has as its system Escherichia coli K-12 BW25113. Briefly: relative growth (OD600 normalised to plate interquartile mean) (fraction); higher = less growth inhibition, active = 0.2 or less. Particulars: 50 µM; LB; incubation time: overnight (16-24 h).
In the case of `C[C@@H]1CNS(=O)(=O)CO1`, the relative growth is inactive: 0.938. As to `C[C@H]1CN([C@@H](C)CO)C(=O)c2cc(NC(=O)Nc3ccc(F)cc3)ccc2O[C@H]1CN(C)C(=O)Nc1ccc(C(F)(F)F)cc1`, the relative growth was inactive: 0.971. As to `C[C@@H]1CN([C@@H](C)CO)C(=O)c2cc(NS(=O)(=O)c3ccc(F)cc3)ccc2O[C@@H](C)CCCCO[C@H]1CN(C)Cc1ccc(C(F)(F)F)cc1`, the relative growth was inactive: 0.982. As to `C[C@H](CO)N1C[C@H](C)[C@H](CN(C)S(C)(=O)=O)OCCCC[C@H](C)Oc2ccc(NS(=O)(=O)c3ccc(F)cc3)cc2C1=O`, the relative growth was inactive: 0.992.

With `CC(=O)N1[C@@H](CO)[C@@H](c2ccccc2)C12CN(C(=O)CN1CCOCC1)C2`, the relative growth is inactive: 1. Consider `CC(=O)[C@]12O[C@@]3(COC[C@H](c4ccccc4)N3C1=O)[C@H]1C(=O)N(C)C(=O)[C@H]12`, for which the relative growth is inactive: 1.01.

Regarding `C[C@H]1CN([C@@H](C)CO)C(=O)c2cc(C#Cc3ccccn3)cnc2O[C@@H]1CN(C)C(=O)c1cnccn1`, the relative growth was inactive: 0.974. In the case of `C[C@H](CO)N1C[C@H](C)[C@@H](CN(C)C(=O)Nc2ccccc2)OCCCC[C@H](C)Oc2ccc(NC(=O)Nc3ccc(C(F)(F)F)cc3)cc2C1=O` it was inactive: 0.941.

In the case of `C[C@H](CO)N1C[C@H](C)[C@@H](CN(C)Cc2ccc3c(c2)OCO3)OCCCC[C@H](C)Oc2ccc(NC(=O)C3CCCCC3)cc2C1=O`, the relative growth was inactive: 0.995.

On to `O=C(C[C@H]1CC[C@H]2[C@@H](COC[C@@H](O)CN2C(=O)c2cnccn2)O1)NCc1ccc(Oc2ccccc2)cc1`, for which the relative growth was inactive: 0.98. On to `C[C@@H]1CN([C@H](C)CO)C(=O)c2cc(NC(=O)CCC(F)(F)F)ccc2O[C@@H](C)CCCCO[C@@H]1CN(C)S(=O)(=O)c1cccs1`, for which the relative growth was inactive: 1.03. In the case of `C=CCOC(=O)[C@@H]1[C@H]2C(=O)O[C@H](c3ccccc3)[C@H](c3ccccc3)N2[C@H](c2ccc(OCCOC(=O)[C@H]3C[C@H]4C(=O)N5CCC[C@H]5C(=O)N4[C@H]3c3ccc(O)cc3)cc2)[C@@]12C(=O)Nc1ccccc12`, the relative growth is inactive: 1.01. For `C[C@@H]1CN([C@@H](C)CO)C(=O)c2c(c3ccccc3n2C)-c2ccccc2CO[C@@H]1CN(C)Cc1ccc(O)cc1`, the relative growth was inactive: 1.01. Turning to `Cc1ccc(S(=O)(=O)Nc2ccc3c(c2)CC(=O)N([C@H](C)CO)C[C@H](C)[C@@H](CN(C)Cc2ccncc2)O3)cc1`, the relative growth was inactive: 1.01. In the case of `CC[C@@H](O)C[C@H]1CC[C@H]([C@@H](C)C(=O)O[C@@H](C)C[C@H]2CC[C@H]([C@@H](C)C(=O)O[C@@H](C)C[C@H]3CC[C@H]([C@@H](C)C(=O)O[C@@H](C)C[C@H]4CC[C@H]([C@@H](C)C(=O)O)O4)O3)O2)O1` it was inactive: 1.06. In the case of `C[C@H]1CCCCO[C@H](CN(C)C(=O)Nc2cccc3ccccc23)[C@@H](C)CN([C@@H](C)CO)C(=O)c2cc(NC(=O)Cc3ccccc3)ccc2O1` it was inactive: 1.01; in that of `C[C@@H]1CN([C@H](C)CO)C(=O)c2cc(NS(=O)(=O)c3cccs3)ccc2O[C@@H](C)CCCCO[C@@H]1CN(C)C(=O)Cc1ccccc1`, inactive: 1.02. For `COc1ccc(NC(=O)N(C)C[C@@H]2Oc3ccc(NS(=O)(=O)c4cn(C)cn4)cc3CC(=O)N([C@H](C)CO)C[C@H]2C)cc1`, the relative growth is inactive: 0.998. In the case of `C[C@@H]1CN([C@@H](C)CO)C(=O)c2cccc(NS(=O)(=O)c3cn(C)cn3)c2O[C@H]1CN(C)C(=O)Nc1ccc2c(c1)OCO2` it was inactive: 1.02. Consider `COCC#Cc1ccc([C@H]2[C@@H](CO)N3C(=O)CN(C(=O)c4cccnc4)C[C@@H]23)cc1`, for which the relative growth is inactive: 0.993. In the case of `CCCN(C)C[C@@H]1Oc2cc(C#Cc3cccc(OC)c3)ccc2S(=O)(=O)N([C@H](C)CO)C[C@@H]1C`, the relative growth was inactive: 0.99. Turning to `Cc1noc(C)c1NC(=O)Nc1ccc2c(c1)C(=O)N([C@@H](C)CO)C[C@@H](C)[C@H](CN(C)Cc1ccccc1)OCCCC[C@H](C)O2`, the relative growth is inactive: 0.999. As to `CS(=O)(=O)Nc1ccc2c(c1)[C@H]1C[C@@H](CC(=O)NCC3CC3)O[C@H](CO)[C@H]1O2`, the relative growth was inactive: 1.04. On to `O=C(C[C@@H]1CC[C@H]2[C@@H](COC[C@@H](O)CN2C(=O)c2ccccc2)O1)NCCCN1CCOCC1`, for which the relative growth is inactive: 0.988. Take `C[C@H](CO)N1C[C@H](C)[C@@H](CN(C)C(=O)c2cc(Cl)cc(Cl)c2)OCc2ccccc2-c2c(n(C)c3ccccc23)C1=O`: the relative growth was inactive: 0.933. As for `C[C@@H]1CN([C@H](C)CO)C(=O)c2cc(NS(C)(=O)=O)ccc2O[C@H]1CN(C)Cc1ccc(C(F)(F)F)cc1`, the relative growth was inactive: 0.994. Take `O=C(CN1CCOCC1)N[C@H]1CC[C@H](CCn2cc(C3CCCC3)nn2)O[C@H]1CO`: the relative growth is inactive: 0.973. Consider `Cc1nc2c(c(C)nn2-c2ccccc2)c(C)c1CN`, for which the relative growth was inactive: 0.99. In the case of `CCS(=O)(=O)N1C[C@]2(CN(C2)C(=O)Nc2c(noc2C)C)c2c(n(c3cc(ccc23)OC)C)[C@@H]1CO` it was inactive: 0.982; in that of `CCN(CC)c1ccc(N2CC=C[C@@]34O[C@@H]5/C=C\CCCOC(=O)[C@@H]5[C@H]3C(=O)N(CCO)[C@@H]4C2=O)cc1`, inactive: 0.979; in that of `CN(C)S(=O)(=O)c1ccc(C#N)cc1`, inactive: 0.999. On to `Cc1ccc(S(=O)(=O)N(C)C[C@@H]2Oc3ccc(NC(=O)CCN4CCOCC4)cc3C(=O)N([C@H](C)CO)C[C@@H]2C)cc1`, for which the relative growth was inactive: 1.

In the case of `C[C@@H]1CN([C@@H](C)CO)C(=O)c2cccc(NS(=O)(=O)c3ccc(F)cc3)c2O[C@H]1CN(C)Cc1ccc(Cl)c(Cl)c1`, the relative growth is inactive: 0.996.

Take `COc1ccc(NC(=O)N(C)C[C@@H]2Oc3c(NS(=O)(=O)c4c(C)noc4C)cccc3C(=O)N([C@H](C)CO)C[C@@H]2C)cc1`: the relative growth was inactive: 0.993.

As to `COCC(=O)N1CC(=O)N2[C@H](C1)[C@H](c1ccc(C#Cc3cccnc3)cc1)[C@@H]2CO`, the relative growth was inactive: 0.99.

For the compound `O=c1ccc(=O)n(CNc2nccs2)[nH]1`, the relative growth was inactive: 0.988. For the compound `Cc1noc(C)c1S(=O)(=O)N(C)C[C@@H]1Oc2c(NC(=O)c3cnccn3)cccc2C(=O)N([C@H](C)CO)C[C@@H]1C`, the relative growth is inactive: 0.981. In the case of `C[C@H]1CN([C@@H](C)CO)C(=O)c2cccc(NS(=O)(=O)c3cn(C)cn3)c2O[C@@H]1CN(C)S(=O)(=O)c1ccc(Cl)cc1`, the relative growth is inactive: 1.

Turning to `C[C@@H]1CN([C@@H](C)CO)C(=O)c2c(c3ccccc3n2C)-c2ccccc2CO[C@H]1CN(C)Cc1ccc(-c2ccccc2)cc1`, the relative growth was inactive: 1.02. Take `C[C@H](CO)N1C[C@H](C)[C@H](CN(C)CC2CCOCC2)Oc2cc(C#Cc3cccnc3)ccc2S1(=O)=O`: the relative growth was inactive: 0.989. The value for `C[C@H](CO)N1C[C@H](C)[C@@H](CN(C)S(=O)(=O)c2cn(C)cn2)Oc2ccc(NC(=O)c3ccncc3)cc2C1=O` was inactive: 0.993; that for `Cc1noc(C)c1NC(=O)Nc1ccc2c(c1)C(=O)N([C@H](C)CO)C[C@@H](C)[C@@H](CN(C)Cc1ccc3c(c1)OCO3)OCCCC[C@H](C)O2` was inactive: 0.964.

As for `Cc1noc(C)c1NC(=O)N(C)C[C@@H]1Oc2c(NS(=O)(=O)c3c(C)noc3C)cccc2C(=O)N([C@H](C)CO)C[C@@H]1C`, the relative growth is inactive: 0.99.

In the case of `O=C(C[C@H]1C=C[C@@H](NC(=O)CN2CCOCC2)[C@@H](CO)O1)NCc1cccc(F)c1`, the relative growth was inactive: 0.897. Take `Cc1cc(OCCCS(C)(=O)=O)cc(C)c1-c1cccc(COc2ccc3c(c2)OC[C@H]3CC(=O)O)c1`: the relative growth is inactive: 1.02. Consider `COc1ccc(CN(C)C[C@@H]2OCCCC[C@H](C)Oc3ccc(NS(=O)(=O)c4ccc(Cl)cc4)cc3C(=O)N([C@H](C)CO)C[C@@H]2C)cc1`, for which the relative growth is inactive: 1. On to `CCC(=O)Nc1ccc2c(c1)C(=O)N(C)C[C@@H](OC)[C@H](C)CN(C(=O)CN1CCOCC1)[C@H](C)CO2`, for which the relative growth is inactive: 1.02. `COc1ccc(S(=O)(=O)N(C)C[C@@H]2Oc3c(NC(=O)c4ccncc4)cccc3C(=O)N([C@@H](C)CO)C[C@H]2C)cc1`: the relative growth was inactive: 1. Regarding `C[C@@H]1CN([C@H](C)CO)C(=O)c2cccc(NC(=O)CCCCCC(=O)Nc3ccccc3N)c2O[C@H]1CN(C)Cc1ccc(-c2ccccc2)cc1`, the relative growth was inactive: 1. The value for `COCCNC(=O)C[C@H]1C[C@H]2c3cc(NS(C)(=O)=O)ccc3O[C@H]2[C@@H](CO)O1` was inactive: 1.03; that for `Cc1noc(C)c1NC(=O)Nc1ccc2c(c1)C(=O)N([C@H](C)CO)C[C@H](C)[C@@H](CN(C)C(=O)c1ccccc1)OCCCC[C@@H](C)O2` was inactive: 0.996. Take `C[C@@H]1CN([C@@H](C)CO)C(=O)c2cc(NC(=O)Cn3cnnn3)ccc2O[C@H]1CN(C)S(=O)(=O)c1cn(C)cn1`: the relative growth was inactive: 1.01. On to `C[C@H]1CN([C@@H](C)CO)C(=O)Cc2cc(NS(=O)(=O)c3ccc(F)cc3)ccc2O[C@@H]1CN(C)Cc1ccc(Cl)c(Cl)c1`, for which the relative growth is inactive: 0.978.

Take `C[C@H]1CN([C@@H](C)CO)C(=O)c2cccc(NC(=O)c3ccncc3)c2O[C@H]1CN(C)Cc1ccncc1`: the relative growth was inactive: 0.988.

For the compound `NCCNC(=O)c1ccc(Cl)cn1`, the relative growth is inactive: 0.995. Regarding `C[C@@H]1CCCCO[C@H](CN(C)Cc2ccncc2)[C@H](C)CN([C@H](C)CO)C(=O)c2cc(NS(=O)(=O)c3ccc(Cl)cc3)ccc2O1`, the relative growth is inactive: 0.992. In the case of `C[C@H]1CN([C@@H](C)CO)C(=O)Cc2cc(NS(C)(=O)=O)ccc2O[C@H]1CN(C)C(=O)Nc1ccc2c(c1)OCO2` it was inactive: 0.986; in that of `COc1ccccc1C(=O)Nc1ccc2c(c1)C(=O)N(C)[C@@H]1CC[C@@H](CC(=O)NCCc3ccncc3)O[C@@H]1CO2`, inactive: 0.997.
